From paper PMC4336329 (PLoS ONE, 2015)
Out of some 310,000 compounds screened, about 14,000 (4.5%) showed an effect of 50% or more. The effect is printed as a negative number. This is one part of the list.

biological target: human ether-à-go-go-related gene (hERG) potassium channel (human, UniProt Q12809); assay: primary screen, population patch clamp on CHO cells stably expressing hERG
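Also: peak tail current of the secondary pulse compared with the same well before compound.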

human ether-à-go-go-related gene (hERG) potassium channel, sequence (Q12809 whole entry, looked up): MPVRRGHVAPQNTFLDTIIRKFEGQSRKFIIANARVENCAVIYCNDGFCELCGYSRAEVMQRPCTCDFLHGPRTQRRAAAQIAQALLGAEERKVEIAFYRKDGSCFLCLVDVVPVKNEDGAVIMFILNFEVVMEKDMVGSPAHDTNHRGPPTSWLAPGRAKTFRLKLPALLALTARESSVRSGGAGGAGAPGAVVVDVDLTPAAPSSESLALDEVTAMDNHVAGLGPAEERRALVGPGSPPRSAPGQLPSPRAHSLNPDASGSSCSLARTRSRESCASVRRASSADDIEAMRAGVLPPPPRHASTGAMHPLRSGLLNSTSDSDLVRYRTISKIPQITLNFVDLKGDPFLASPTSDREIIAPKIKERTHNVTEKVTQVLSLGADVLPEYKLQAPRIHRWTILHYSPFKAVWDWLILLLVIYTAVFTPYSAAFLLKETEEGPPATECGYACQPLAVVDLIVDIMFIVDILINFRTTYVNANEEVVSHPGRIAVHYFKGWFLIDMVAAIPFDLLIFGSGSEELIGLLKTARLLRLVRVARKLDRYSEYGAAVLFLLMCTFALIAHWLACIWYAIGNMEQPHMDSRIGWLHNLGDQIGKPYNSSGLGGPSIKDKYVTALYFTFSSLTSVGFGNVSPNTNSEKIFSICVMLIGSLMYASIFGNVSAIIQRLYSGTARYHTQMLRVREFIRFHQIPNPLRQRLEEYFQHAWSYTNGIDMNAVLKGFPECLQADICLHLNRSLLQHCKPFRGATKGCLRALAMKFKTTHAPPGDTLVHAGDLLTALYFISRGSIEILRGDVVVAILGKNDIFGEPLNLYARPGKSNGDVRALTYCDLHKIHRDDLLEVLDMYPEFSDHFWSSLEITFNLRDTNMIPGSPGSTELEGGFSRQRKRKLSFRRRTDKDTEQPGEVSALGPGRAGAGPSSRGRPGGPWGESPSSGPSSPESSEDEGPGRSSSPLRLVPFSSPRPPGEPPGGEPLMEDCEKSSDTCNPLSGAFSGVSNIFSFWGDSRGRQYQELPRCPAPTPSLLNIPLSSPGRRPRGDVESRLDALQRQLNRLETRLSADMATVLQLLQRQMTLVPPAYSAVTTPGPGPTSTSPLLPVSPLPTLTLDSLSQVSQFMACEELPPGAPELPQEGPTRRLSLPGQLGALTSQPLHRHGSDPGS

Compound | hERG current change (%, negative = inhibition) at 10uM
CCOC(=O)c1ccc(NCC(O)COc2ccccc2)cc1 (centres unmarked) | -20.4%
COC(=O)c1ccccc1NC(=O)NCCc1ccccc1OC.Cl | 16.1%
FC(F)(F)c1cccc(NC(=S)Nc2ccc(Cl)c(Cl)c2)c1 | 21.4%
O=Cc1ccc(N2N=C(c3ccccc3)CC2c2ccccc2)cc1 (centres unmarked) | 24.3%
COc1ccc(NC2CCCN(C(=O)C3=NN(C)C(=O)CC3)C2)cc1OC (centres unmarked) | 53.4%
Cc1nn(Cc2noc(C(=O)NCc3ccc4c(c3)OCO4)n2)c(C)c1Br | -21.3%
COC1OC(COC(=O)c2ccccc2)C(OC(=O)c2ccccc2)C1OC(=O)c1ccccc1 (centres unmarked) | 16.6%
Cc1cc(SCc2ccccc2Cl)nc(=O)[nH]1 | 7.38%
COc1ccccc1CNC(=O)CSc1nc(C)cs1 | 11.7%
O=C(Nc1cc2c3c(c1)CC(=O)N3CCC2)c1ccco1 | -17.8%
CCOc1ccc(OCCSc2nc3ccccc3[nH]2)cc1 | -0.985%
CCOC(=O)c1[nH]c2ccc(OC)cc2c1N=CN(C)C | -7.13%
O=C(CCCc1ccccc1)NCc1cccnc1 | 19.2%
Cc1cc(C)c(NC(=O)C(C)Sc2nc3ccc(N4C(=O)c5ccccc5C4=O)cc3s2)c(C)c1 (centres unmarked) | -1.1%
COc1ccc(C(CNC(=O)CNC(=O)c2ccccc2)N2CCCC2)cc1 (centres unmarked) | -13.8%
CC1C/C(=C/c2ccccn2)C(=O)/C(=C/c2ccccn2)C1 (centres unmarked) | -9.29%
CN1c2ccsc2/C(=N/Nc2ccccc2)CS1(=O)=O | 6.46%
C=CCC(CC)C(=O)NC(=O)N1CCCc2ccccc21 (centres unmarked) | 15.8%
O=C(/C=C/c1ccccc1)Nc1cccc(C(=O)O)c1 | 47.8%
O=C(Cn1cc2c(n1)CCCCC2)Nc1c(F)cc(F)cc1Br | 5.2%
CCN(CC)C(=O)c1nc[nH]c1C(=O)N1CCN(C(=O)OC(C)(C)C)CC1 | 16.8%
CCN(CC)C(=O)c1ccc(S(=O)(=O)Cc2ccc(C)cc2)c([N+](=O)[O-])c1 | -17.6%

Compound | hERG current change (%, negative = inhibition) at 10uM
Cc1ccc(S(=O)(=O)N2CC3(C)CN(S(=O)(=O)c4ccc(C)cc4)CC(C)(C2)C3O)cc1 (centres unmarked) | 2.88%
CC(=O)Nc1cccc(NC(=O)CSc2nnc3ccc(-c4cccnc4)nn23)c1 | 13.4%
Cc1ccc(NS(=O)(=O)c2cccc(C(=O)Nc3c(C)n(C)n(-c4ccccc4)c3=O)c2)cc1 | -6%
CC(C)c1nc(N2CCN(C(=O)c3ccco3)CC2)c(C#N)c2c1COC(C)(C)C2 | -71.5%
COc1ccc(OC)c(C2C(C(C)=O)=C(C)Nc3ncnn32)c1 (centres unmarked) | 11.2%
CCCOc1ccc(CN(C)c2ncnc(N)n2)cc1 | 0.00248%
N/C(=N\OC(=O)CCC1CCCC1)c1ccncc1 | -17.1%
CCC(=O)N1CCc2cc(S(=O)(=O)NCCC(=O)N3CCN(c4cccc(OC)c4)CC3)ccc21 | 0.127%
CC1(C)C(=O)NCCN1C(=O)CC1C(=O)NCCN1CC(c1ccccc1)c1ccccc1 (centres unmarked) | 12%
CCCC12CN3CCN(CC(C3)/C1=N\NC(=O)c1ccc(F)cc1)C2 | -1.38%
Cc1ccc(-c2nn(-c3ccccc3)cc2/C=N/NC(=O)c2ccc3c(c2)OCO3)cc1 | 17.2%
COc1ccc(OC)c(-n2cnc3cc(C(=O)NCCCN4CCOCC4)ccc32)c1 | -2.93%
Cl.OCCN1CCN(CC(O)COc2ccc(Cl)cc2)CC1 (centres unmarked) | -20.6%
COc1ccccc1NC(=O)/C(=N/OCc1ccc(C#N)cc1)C(C)=O | -18.2%
Cn1c(N)c(C(=O)COC(=O)CSc2cccc3cccc(Cl)c23)c(=O)n(C)c1=O | 6.01%
Cc1csc(NC(=O)CN2C(=O)C3CC=CCC3C2=O)n1 (centres unmarked) | -0.744%
N#C/C(C(N)=O)=c1/ccc2c(c1)N1C3=C(CCCC3)CC3CCCCC31N=2 (centres unmarked) | -8.53%
Cc1cc(C)c(OCC(=O)Nc2nc(-c3ccccn3)cs2)c(C)c1 | -2.19%
CC(C)(C)n1ncc2c(=O)n(CC(=O)c3ccccc3)cnc21 | -10.4%
COc1ccc(C(=O)Nc2ccc3oc(-c4cccc(F)c4)nc3c2)cc1OC | -1.26%
CC(C)N1CC(C(=O)Nc2ccc(Br)c(Cl)c2)CC1=O (centres unmarked) | -2.34%
COC(=O)c1cccc(NC(=O)CSc2nnc(C)n2C)c1 | 26%
